Assay results reported in the supplement of paper PMC4604168 (melanoma cell lines).
The list shows a part of the results. Repeats are few or missing, and single values can be far off.

What was measured:
Experiment in all cases: cell count relative to DMSO control; melanoma cells; higher = more viable cells
Settings in all cases: library dose: standard library concentration; 72 h
G361 = test system: G361
IPC-298 = test system: IPC-298
IST-MEL1 = test system: IST-MEL1
LB2518-MEL = test system: LB2518-MEL
LOXIMVI = test system: LOXIMVI
MEL-HO = test system: MEL-HO
MZ2-MEL = test system: MZ2-MEL
MeWo = test system: MeWo
RPMI7951 = test system: RPMI7951
RVH-421 = test system: RVH-421
SkMel28 = test system: SkMel28
SkMel2 = test system: SkMel2
SkMel30 = test system: SkMel30
SkMel5 = test system: SkMel5
UACC257 = test system: UACC257
UACC62 = test system: UACC62
WM115 = test system: WM115
WM1716 = test system: WM1716
WM3526 = test system: WM3526
WM1745 = test system: WM1745
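Also: cells treated in 1,536-well plates, then fixed and DAPI-stained, with nuclei counted from automated high-throughput microscope images.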

SMILES	cell count (G361)	cell count (IPC-298)	cell count (IST-MEL1)	cell count (LB2518-MEL)	cell count (LOXIMVI)	cell count (MEL-HO)	cell count (MZ2-MEL)	cell count (MeWo)	cell count (RPMI7951)	cell count (RVH-421)	cell count (SkMel28)	cell count (SkMel2)	cell count (SkMel30)	cell count (SkMel5)	cell count (UACC257)	cell count (UACC62)	cell count (WM115)	cell count (WM1716)	cell count (WM3526)	cell count (WM1745)
C=CCNC1=C2C[C@@H](C)C[C@H](OC)[C@H](O)[C@@H](C)/C=C(\C)[C@H](OC(N)=O)[C@@H](OC)/C=C\C=C(/C)C(=O)NC(=CC1=O)C2=O [Tanespimycin] + C/C(O)=C(\C#N)C(=O)Nc1cc(Br)ccc1Br [LFM-A13] (first compound 0.01 µM, partner dose 10 µM)	94.2%	90%	73.6%	86.4%	116%	82.9%	95.9%	91.1%	36.9%	114%	73.3%	84.9%	97.3%	72.6%	102%	71.4%	34.3%	87.3%	105%	
CC(=O)O[C@@]12CO[C@@H]1C[C@H](O)[C@@]1(C)C(=O)[C@H](O)C3=C(C)[C@@H](OC(=O)[C@H](O)[C@@H](NC(=O)OC(C)(C)C)c4ccccc4)C[C@@](O)([C@@H](OC(=O)c4ccccc4)[C@H]21)C3(C)C [Docetaxel] + O=C(Oc1ccc([N+](=O)[O-])cc1)N1CCC(C(O)(c2ccc3c(c2)OCO3)c2ccc3c(c2)OCO3)CC1 [JZL184] (first compound 0.0005 µM, partner dose 5 µM)	19%	38.7%	42.3%	51%	39.3%	40.6%	44.6%	22.7%	33.2%	48.4%	13.8%	20%	35.9%	37%	59%	36.8%	38.7%	32.7%	31.3%	
O=C(O)[C@@H]1[O][Sb](=[O])([O][Sb]2(=[O])[O][C@H]([C@H](O)CO)[C@H](O)[C@H](C(=O)O)[O]2)[O][C@H]([C@H](O)CO)[C@@H]1O (stereo not given in full) [stibogluconate] + Cc1cc(SCc2sc(-c3ccc(C(F)(F)F)c(F)c3)nc2C)ccc1OCC(=O)O [GW0742] (first compound 10 µM, partner dose 10 µM)	122%	106%	89.8%	145%	112%	85%	104%	96.2%	149%	140%	101%	117%	112%	99.2%	110%	102%	110%	97.9%	95%	
CCCCCCCCc1ccc(CCC(N)(CO)CO)cc1 [fingolimod] + Cc1cc(SCc2sc(-c3ccc(C(F)(F)F)c(F)c3)nc2C)ccc1OCC(=O)O [GW0742] (first compound 10 µM, partner dose 10 µM)	1.23%	50.5%	8.78%	0.166%	40.7%	28.7%	2.7%	5.03%	5.49%	34.4%	0.384%	0.401%	12.7%	32.6%	53.8%	7%	10.3%	19.4%	24.1%	
Cn1nnc2c(C(N)=O)ncn2c1=O [temozolomide] + Cc1cc(SCc2sc(-c3ccc(C(F)(F)F)c(F)c3)nc2C)ccc1OCC(=O)O [GW0742] (first compound 10 µM, partner dose 10 µM)	89%	85%	84.3%	79.2%	87.6%	91.5%	88%	98%	85%	85.9%	36.1%	101%	75.3%	100%	90.5%	70.8%	79.1%	55.8%	102%	86.8%
C=CCNC1=C2C[C@@H](C)C[C@H](OC)[C@H](O)[C@@H](C)/C=C(\C)[C@H](OC(N)=O)[C@@H](OC)/C=C\C=C(/C)C(=O)NC(=CC1=O)C2=O [Tanespimycin] + O=C(Oc1ccc([N+](=O)[O-])cc1)N1CCC(C(O)(c2ccc3c(c2)OCO3)c2ccc3c(c2)OCO3)CC1 [JZL184] (first compound 0.01 µM, partner dose 5 µM)	83%	90.9%	52.8%	76.7%	137%	88.2%	133%	66.7%	23.6%	91.9%	71.5%	105%	97.6%	62%	96.2%	35%	47.5%	83.5%	71.8%	
C=C(c1ccc(C(=O)O)cc1)c1cc2c(cc1C)C(C)(C)CCC2(C)C [Bexarotene] + O=C(Oc1ccc([N+](=O)[O-])cc1)N1CCC(C(O)(c2ccc3c(c2)OCO3)c2ccc3c(c2)OCO3)CC1 [JZL184] (first compound 10 µM, partner dose 5 µM)	85.1%	87.3%	98%	154%	106%	87.1%	103%	79.1%	68.7%	95.5%	77.5%	94%	98.1%	79.1%	76.5%	81.7%	126%	77%	100%	
CC(=O)c1c(C)c2cnc(Nc3ccc(N4CCNCC4)cn3)nc2n(C2CCCC2)c1=O [palbociclib] + Cc1cc(SCc2sc(-c3ccc(C(F)(F)F)c(F)c3)nc2C)ccc1OCC(=O)O [GW0742] (first compound 0.2 µM, partner dose 10 µM)	68%	84%	71.9%	65.5%	92%	81.2%	83.6%	55.1%	56.4%	79%	44.4%	62.5%	76.4%	65.9%	83.6%	84.9%	51.8%	43.7%	49.6%	
Nc1nc(F)nc2c1ncn2[C@@H]1O[C@H](CO)[C@@H](O)[C@@H]1O [fludarabine] + C/C(O)=C(\C#N)C(=O)Nc1cc(Br)ccc1Br [LFM-A13] (first compound 1 µM, partner dose 10 µM)	98.1%	75%	69%	90.3%	83.8%	76.7%	98.8%	92.9%	40.1%	88.6%	2.96%	2.93%	12.6%	33.6%	32%	60%	103%	87.9%	22.2%	
O=C(/C=C/c1cccnc1)NCCCCC1CCN(C(=O)c2ccccc2)CC1 + Cc1cc(SCc2sc(-c3ccc(C(F)(F)F)c(F)c3)nc2C)ccc1OCC(=O)O [GW0742] (first compound 0.05 µM, partner dose 10 µM)	7.78%	49.1%	82.8%	72.9%	87.2%	59.9%	44.6%	103%	104%	64.7%	70.9%	24.9%	96.9%	118%	99.2%	110%	93.3%	96.1%	99.5%	
CCN(CC)CCNC(=O)c1c(C)[nH]c(/C=C2\C(=O)Nc3ccc(F)cc32)c1C [sunitinib] + C/C(O)=C(\C#N)C(=O)Nc1cc(Br)ccc1Br [LFM-A13] (first compound 2 µM, partner dose 10 µM)	103%	77.9%	96.5%	83.9%	105%	107%	86.8%	67.9%	71.7%	118%	76.4%	86.1%	57%	54.3%	89.6%	74.4%	55.6%	85.1%	52.7%	
N#CC[C@H](C1CCCC1)n1cc(-c2ncnc3[nH]ccc23)cn1 [ruxolitinib] + Cc1cc(SCc2sc(-c3ccc(C(F)(F)F)c(F)c3)nc2C)ccc1OCC(=O)O [GW0742] (first compound 5 µM, partner dose 10 µM)	70.2%	95%	80.3%	109%	100%	67.3%	79.9%	81.4%	70.8%	86%	88.8%	95.7%	104%	64%	78%	104%	112%	78.6%	106%	
CCN(CC)CCNC(=O)c1c(C)[nH]c(/C=C2\C(=O)Nc3ccc(F)cc32)c1C [sunitinib] + Cc1cc(SCc2sc(-c3ccc(C(F)(F)F)c(F)c3)nc2C)ccc1OCC(=O)O [GW0742] (first compound 2 µM, partner dose 10 µM)	86.7%	73.7%	84.9%	77.6%	111%	82.9%	118%	60.8%	83.2%	84.1%	72.3%	77.1%	68.6%	51.5%	82.9%	78%	81.6%	99.2%	73.5%	
CCCCCCCCc1ccc(CCC(N)(CO)CO)cc1 [fingolimod] + C/C(O)=C(\C#N)C(=O)Nc1cc(Br)ccc1Br [LFM-A13] (first compound 10 µM, partner dose 10 µM)	1.29%	77.7%	7.58%	0.209%	23.5%	5.44%	7.95%	32.7%	2.74%	12.5%	0.633%	0.66%	11.3%	73.4%	62.8%	6.39%	18.4%	7.98%	32.3%	
CC(=O)c1c(C)c2cnc(Nc3ccc(N4CCNCC4)cn3)nc2n(C2CCCC2)c1=O [palbociclib] + O=C(Oc1ccc([N+](=O)[O-])cc1)N1CCC(C(O)(c2ccc3c(c2)OCO3)c2ccc3c(c2)OCO3)CC1 [JZL184] (first compound 0.2 µM, partner dose 5 µM)	78.6%	79%	72.8%	75%	80%	79.4%	68.1%	63.3%	69.7%	70.1%	53.7%	72.6%	76.8%	56.1%	78.4%	49.3%	61.4%	40.5%	51.7%	
COc1cc([C@@H]2c3cc4c(cc3[C@@H](O[C@@H]3O[C@@H]5CO[C@@H](C)O[C@H]5[C@H](O)[C@H]3O)[C@H]3COC(=O)[C@H]23)OCO4)cc(OC)c1O [etoposide] + Cc1cc(SCc2sc(-c3ccc(C(F)(F)F)c(F)c3)nc2C)ccc1OCC(=O)O [GW0742] (first compound 0.1 µM, partner dose 10 µM)	88.1%	83.7%	95.7%	88.2%	84.8%	96.9%	85.2%	77.1%	89.2%	97.5%	71.5%	60.5%	103%	89.8%	83.7%	64.3%	77%	60%	108%	
